Measurements from PubChem BioAssay AID485344 (National Center for Advancing Translational Sciences (NCATS), 2010).
Out of some 340,000 compounds screened, about 6,900 (2%) were called active. No stated cut-off is given here; in the data, active means inhibition above about 30%; inactive means below that, where a call was filed. The list shows a part of the results, in another mix than the full data. The source gives no active or inactive call for entries shown without one.

The compounds below were run against D(2) dopamine receptor (Homo sapiens) (UniProt P14416) (assay: HTS Assay for Allosteric Antagonists of the Human D2 Dopamine Receptor: Primary Screen for Antagonists). Settings: HEK293 TREx D2 cells, calcium flux, dopamine EC80; at 10 µM; stronger effect = higher value.
Summary of the method: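 Tetracycline-induced HEK293 T-REx cells expressing D2 force-coupled to calcium signalling were dye-loaded, exposed to compound for 180 s, then challenged with an EC80 of dopamine; calcium flux was followed kinetically for a further 180 s.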
Further: 0% is about no effect.

UniProt P14416, sequence (P14416 whole entry, looked up): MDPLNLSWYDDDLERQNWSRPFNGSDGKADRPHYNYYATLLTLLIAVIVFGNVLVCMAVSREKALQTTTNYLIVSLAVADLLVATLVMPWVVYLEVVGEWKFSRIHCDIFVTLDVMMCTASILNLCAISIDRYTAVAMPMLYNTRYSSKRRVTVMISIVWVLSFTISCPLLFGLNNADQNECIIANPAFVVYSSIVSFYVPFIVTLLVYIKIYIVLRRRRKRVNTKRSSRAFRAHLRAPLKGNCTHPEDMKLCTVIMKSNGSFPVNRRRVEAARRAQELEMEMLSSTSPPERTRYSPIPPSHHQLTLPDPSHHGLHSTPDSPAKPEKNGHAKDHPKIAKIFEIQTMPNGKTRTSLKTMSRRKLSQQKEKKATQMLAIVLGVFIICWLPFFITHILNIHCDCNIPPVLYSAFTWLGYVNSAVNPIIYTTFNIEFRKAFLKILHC

Compound	inhibition
CC(C)C1C(=O)Nc2ccc(S(=O)(=O)NCCc3ccc(Cl)cc3)cc21 (stereo unspecified)	0.867%
CCCOc1ccc(-c2nn(-c3ccccc3)cc2C2NC(=O)NC(C)=C2C(=O)OC)cc1C (stereo unspecified)	13.3%
CCc1cccc(NC(=O)c2ccc(CN3C(=O)C(C)=C(c4ccc(OC)cc4)S3(=O)=O)cc2)c1	-28%
CCOc1ccccc1NC(=O)Nc1nnc(N2CCCCCC2)s1	-23.4%
Cc1ccccc1CNC(=O)C1CCCN(S(=O)(=O)N(C)c2ccc(F)cc2)C1 (stereo unspecified)	3.54%
CCC(=O)N1CCc2cc(Br)cc(S(=O)(=O)CCC(=O)NCCc3ccc(Cl)cc3)c21	-2.22%
CC(C)CCN(Cc1ccco1)C(=O)c1cc2c(Cl)nc3ccccc3c2s1	1.87%
COc1ccc([N+](=O)[O-])cc1NC(=S)NC(NC(=O)Cc1ccc(OC)c(OC)c1)C(Cl)(Cl)Cl (stereo unspecified)	active: 73.9%
COc1ccc(-c2noc(CSCC(=O)Nc3cccc(C(F)(F)F)c3)n2)cc1OC	-3.08%
Cc1occc1C(=O)NNC(=O)c1ccccc1C(=O)O	active: 30.7%
COc1ccc(-c2cc(C)no2)cc1S(=O)(=O)NCCCN1CCCCCC1	active: 33.7%
CCOc1ccc(C2Nc3ccccc3-c3nnc(SCc4ccccc4)nc3O2)cc1OC (stereo unspecified)	-12.3%
Cc1cc2c(OCC(O)CNC3CCCCC3)cccc2[nH]1 (stereo unspecified)	active: 60.2%
COc1cc(C(=O)Nc2ccc3oc(-c4ccccc4)nc3c2)cc(OC)c1OC	-9.51%
COc1cc(NC(=O)Cn2ncc3c([nH]c4ccc(C)cc43)c2=O)cc(OC)c1OC	-9.02%
COc1cc(Cl)c(C)cc1NC(=O)CSc1ncc(S(=O)(=O)c2ccc(C(C)(C)C)cc2)c(=O)[nH]1	3.11%
Cn1c2ccccc2c2c(C(=O)N3CCN(c4ccc(F)cc4)CC3)cn(C3CCCCC3)c(=O)c21	-5.23%
O=C1Nc2ccc(S(=O)(=O)Nc3ccccc3O)c3cccc1c23	-4.38%
CCOc1ccccc1Nc1cc(-c2ccccc2)nc(C)n1	-4.48%
COc1ccc(NC(=O)CSc2nnc(-c3cccs3)o2)cc1	16.4%
Cc1cc(C)cc(OC(=O)c2snnc2C)c1	18.8%

Compound	inhibition
COc1cccc(-n2ccnc2SCC(=O)Nc2ccccc2)c1	active: 50.4%
CC(NC(=O)Nc1ccccc1C(F)(F)F)c1c(-n2cccc2)sc2c1CCCC2 (stereo unspecified)	15%
CCOC(=O)C1(CCOc2ccccc2)CCN(S(=O)(=O)N(C)C)CC1	active: 42.9%
COc1ccccc1CNC(=O)Cn1ncc2c3ccccc3n(Cc3ccccc3C)c2c1=O	2.07%
COc1ccc(NCc2cc3cc4c(cc3n(CC(=O)Nc3ccc(C)cc3)c2=O)OCO4)cc1	-2.75%
CCOC(=O)c1ccc(NS(=O)(=O)c2ccc(Br)s2)cc1	-1.4%
COc1ccccc1NC(=O)CSc1oc(-c2cccs2)nc1S(=O)(=O)c1ccc(Br)cc1	-11.9%
CN(C(=O)CSc1nc2c(c(=O)[nH]1)CCCC2)c1ccccc1	2.38%
CCOc1ccccc1NC(=O)C1CCN(S(=O)(=O)c2ccccc2)CC1	-9.13%
CCOc1ccc(S(=O)(=O)N2CCN(c3c(C)cccc3C)CC2)c2ccccc12	0.953%
COc1ccc(-c2nc(SCC(=O)Nc3ccc4c(c3)OCO4)c(-c3ccc(OC)cc3)[nH]2)cc1	5.82%
Cc1cccc(NC(=O)CSc2nc3c([nH]c4ccccc43)c(=O)n2C)c1C	-27.7%
CCOc1ccc(-n2c(Cc3cc(=O)[nH]c(=O)[nH]3)nnc2SCC)cc1	active: 39.7%
C=CCC1(O)C(=O)N2C(=C1C(=O)N1CCOCC1)c1ccccc1CC2(C)C (stereo unspecified)	active: 44.8%
COC(=O)c1[nH]c2c(c1C)C(=O)CC(c1ccc(C)cc1)C2 (stereo unspecified)	active: 32.4%
CCN(CC)CCOc1nnc(-c2ccc(C)cc2)c2ccccc12	active: 35.6%
CCOc1ccc(NC(=O)c2ccc(-c3nc(COc4ccccc4)c(C)o3)cc2)cc1	-10.2%
CC(NC(=O)C1CCN(C(=O)c2ccc(F)cc2)CC1)c1ccc(-n2ccnc2)cc1 (stereo unspecified)	active: 31%
O=C(CC12CC3CC(CC(Br)(C3)C1)C2)NC1CCCC1	active: 33.7%
Cc1c(CN2CC[C@@H](N3CCN(c4ccccn4)CC3)[C@H](O)C2)[nH]c2ccc(F)cc12	active: 51.4%
O=C(NCCc1csc(-c2cccc(F)c2)n1)c1cccs1	14%

Compound	inhibition
Cc1cccc(NC(=S)NC2CCN(Cc3ccccc3)CC2)c1C	active: 93.9%
O=C(Cc1ccccc1)Nc1sc2c(c1C(=O)Nc1ccc(Cl)cc1)CCCC2	-18.6%
CCc1c(C)nc2nncn2c1Nc1ccc(C(C)C)cc1	19.8%
Cc1ccc(CNC(=O)c2ccc(-n3cnc4cccnc43)cc2)cc1	4.27%
O=C(c1ccc2c(c1)N(Cc1ccccc1F)C(=O)c1ccccc1S2=O)N1CCN(c2ccccc2)CC1 (stereo unspecified)	5.85%
CCc1ccc(NC(=O)Cn2c3ncccc3c(=O)n2-c2ccc(C)c(C)c2)cc1	18.7%
Cc1ccc(NC(=O)/C(C#N)=C/c2cc(C)n(-c3ccc(F)cc3)c2C)cc1C	3.83%
CCOC(=O)c1ccc(NC(=O)c2ncn(-c3ccccc3)n2)cc1	7.05%
CC(NC(=O)Nc1cc(Cl)ccc1Cl)c1c(-n2cccc2)sc2c1CCCC2 (stereo unspecified)	0.717%
COc1ccc(N2CCN(C(=O)CCn3c(=O)c4cccn4c4cccnc43)CC2)cc1	-20.8%
CCN(CC)c1ccc(C(=O)N2CCC(c3c[nH]c4ccccc34)(c3c[nH]c4ccccc34)CC2)cc1	9.97%
COCCn1c(=O)[nH]c2cc(C(=O)NCCN3CCN(c4ccccc4)CC3)ccc2c1=O	active: 144%
O=C(NC1CCN(Cc2ccccc2)CC1)c1ccc(Cn2c(=O)c3ccccc3n(Cc3ccccc3)c2=O)cc1	12.1%
COc1cc(/C=C2\SC(=N)N(c3ccc(F)cc3)C2=O)ccc1O	active: 55.8%
Cc1ccc(NC(=O)N2CCc3cc(S(=O)(=O)N4CCC(C)CC4)ccc32)cc1C	5.92%
CCOC(=O)c1ccc(Nc2ncnc3c2cnn3-c2cccc(Cl)c2)cc1	-7.42%
CCN(C(=O)c1cc2c(s1)-c1ccccc1OC2)c1cc(Cl)ccc1OC	3.32%
FC(F)(F)c1cccc(N2CCN(CC3CC=CCC3)CC2)c1 (stereo unspecified)	active: 73.2%
O=S(=O)(NCCS(=O)(=O)N1CCN(c2ccccc2F)CC1)c1ccc(Cl)cc1	7.92%
